# Results as given in the supplement of paper PMC8728848.
# Some of the results follow.
# Legend:
# Assay in all cases: glycan array binding signal (z-score within array); higher = stronger binding
# Settings in all cases: glycan notation: IUPAC condensed, linker removed
# [1] = molecular target: Fuc(a1-2)[GalNAc(a1-3)]Gal(b1-4)GlcNAc(b1-3)GalNAc
# How it was run: (§1)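 Arrays were curated from the Consortium for Functional Glycomics database, 3228 in total, and kept only where the protein sequence was available. Binding is expressed as a within-array Z-score. This score was averaged across arrays of the same protein sequence at different concentrations or buffers and across linkers, and negative values can be read as non-binding.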
# [2] = molecular target: Fuc(a1-2)[GalNAc(a1-3)]Gal(b1-4)[Fuc(a1-3)]GlcNAc
# How it was run: as §1
# [3] = molecular target: Fuc(a1-2)[GalNAc(a1-3)]Gal(b1-4)[Fuc(a1-3)]GlcNAc(b1-3)GalNAc
# How it was run: as §1
# [4] = molecular target: Fuc(a1-2)[GalNAc(a1-4)]Gal(b1-4)GlcNAc
# How it was run: as §1
# [5] = molecular target: Fuc(a1-2)[GalNAc(b1-3)]Gal
# How it was run: as §1
# [6] = molecular target: Fuc(a1-3)GlcNAc
# How it was run: as §1
# [7] = molecular target: Fuc(a1-3)[Gal(b1-4)]Glc6S
# How it was run: as §1
# [8] = molecular target: Fuc(a1-3)[Gal(b1-4)]GlcNAc
# How it was run: as §1
# [9] = molecular target: Fuc(a1-3)[Gal(b1-4)]GlcNAc(b1-2)Man(a1-3)[Fuc(a1-3)[Gal(b1-4)]GlcNAc(b1-2)Man(a1-6)]Man(b1-4)GlcNAc(b1-4)GlcNAc
# How it was run: as §1
# [10] = molecular target: Fuc(a1-3)[Gal(b1-4)]GlcNAc(b1-2)Man(a1-3)[Fuc(a1-3)[Gal(b1-4)]GlcNAc(b1-2)Man(a1-6)]Man(b1-4)GlcNAc(b1-4)[Fuc(a1-6)]GlcNAc
# How it was run: as §1
# [11] = molecular target: Fuc(a1-3)[Gal(b1-4)]GlcNAc(b1-3)Gal(b1-3)[Fuc(a1-4)]GlcNAc
# How it was run: as §1
# [12] = molecular target: Fuc(a1-3)[Gal(b1-4)]GlcNAc(b1-3)GalNAc
# How it was run: as §1
# [13] = molecular target: Fuc(a1-3)[Gal(b1-4)]GlcNAc(b1-4)Gal(b1-4)[Fuc(a1-3)]GlcNAc
# How it was run: as §1
# [14] = molecular target: Fuc(a1-3)[Gal(b1-4)]GlcNAc(b1-4)Gal(b1-4)[Fuc(a1-3)]GlcNAc(b1-4)Gal(b1-4)[Fuc(a1-3)]GlcNAc
# How it was run: as §1
# [15] = molecular target: Fuc(a1-3)[Gal(b1-4)]GlcNAc(b1-6)[Gal(b1-3)GlcNAc(b1-3)]Gal(b1-4)Glc
# How it was run: as §1
# [16] = molecular target: Fuc(a1-3)[Gal(b1-4)]GlcNAc6S
# How it was run: as §1
# [17] = molecular target: Fuc(a1-3)[Gal3S(b1-4)]GlcNAc
# How it was run: as §1
# [18] = molecular target: Fuc(a1-3)[Gal3S(b1-4)]GlcNAc6S
# How it was run: as §1
# [19] = molecular target: Fuc(a1-3)[GalNAc(b1-4)]GlcNAc
# How it was run: as §1
# [20] = molecular target: Fuc(a1-4)GlcNAc
# How it was run: as §1
# [21] = molecular target: Fuc(b1-3)GlcNAc
# How it was run: as §1
# [22] = molecular target: Gal(a1-2)Gal
# How it was run: as §1
# [23] = molecular target: Gal(a1-3)Gal
# How it was run: as §1
# [24] = molecular target: Gal(a1-3)Gal(b1-3)GlcNAc
# How it was run: as §1
# [25] = molecular target: Gal(a1-3)Gal(b1-3)GlcNAc(b1-2)Man(a1-3)[Gal(a1-3)Gal(b1-3)GlcNAc(b1-2)Man(a1-6)]Man(b1-4)GlcNAc(b1-4)GlcNAc
# How it was run: as §1
# [26] = molecular target: Gal(a1-3)Gal(b1-3)GlcNAc(b1-3)GalNAc
# How it was run: as §1
# [27] = molecular target: Gal(a1-3)Gal(b1-3)[Fuc(a1-4)]GlcNAc(b1-2)Man(a1-3)[Gal(a1-3)Gal(b1-3)[Fuc(a1-4)]GlcNAc(b1-2)Man(a1-6)]Man(b1-4)GlcNAc(b1-4)GlcNAc
# How it was run: as §1
# [28] = molecular target: Gal(a1-3)Gal(b1-4)Glc
# How it was run: as §1
# [29] = molecular target: Gal(a1-3)Gal(b1-4)GlcNAc
# How it was run: as §1
# [30] = molecular target: Gal(a1-3)Gal(b1-4)GlcNAc(b1-3)GalNAc
# How it was run: as §1
# [31] = molecular target: Gal(a1-3)Gal(b1-4)[Fuc(a1-3)]GlcNAc
# How it was run: as §1
# [32] = molecular target: Gal(a1-3)Gal(b1-4)[Fuc(a1-3)]GlcNAc(b1-2)Man(a1-3)[Gal(a1-3)Gal(b1-4)[Fuc(a1-3)]GlcNAc(b1-2)Man(a1-6)]Man(b1-4)GlcNAc(b1-4)GlcNAc
# How it was run: as §1
# [33] = molecular target: Gal(a1-3)GalNAc
# How it was run: as §1
# [34] = molecular target: Gal(a1-3)[Gal(a1-4)]Gal(b1-4)GlcNAc
# How it was run: as §1
# [35] = molecular target: Gal(a1-4)Gal(b1-3)GlcNAc(b1-2)Man(a1-3)[Gal(a1-4)Gal(b1-3)GlcNAc(b1-2)Man(a1-6)]Man(b1-4)GlcNAc(b1-4)GlcNAc
# How it was run: as §1
# [36] = molecular target: Gal(a1-4)Gal(b1-4)Glc
# How it was run: as §1
# [37] = molecular target: Gal(a1-4)Gal(b1-4)GlcNAc
# How it was run: as §1
# [38] = molecular target: Gal(a1-4)Gal(b1-4)GlcNAc(b1-2)Man(a1-3)[Gal(a1-4)Gal(b1-4)GlcNAc(b1-2)Man(a1-6)]Man(b1-4)GlcNAc(b1-4)GlcNAc
# How it was run: as §1
# [39] = molecular target: Gal(a1-4)Gal(b1-4)GlcNAc(b1-3)Gal(b1-4)Glc
# How it was run: as §1
# [40] = molecular target: Gal(a1-4)GlcNAc
# How it was run: as §1
# [41] = molecular target: Gal(a1-6)Glc
# How it was run: as §1
# [42] = molecular target: Gal(b1-2)Gal
# How it was run: as §1
# [43] = molecular target: Gal(b1-3)Gal
# How it was run: as §1
# [44] = molecular target: Gal(b1-3)Gal(b1-4)GlcNAc
# How it was run: as §1
# [45] = molecular target: Gal(b1-3)Gal(b1-4)GlcNAc(b1-2)Man(a1-3)[Gal(b1-3)Gal(b1-4)GlcNAc(b1-2)Man(a1-6)]Man(b1-4)GlcNAc(b1-4)GlcNAc
# How it was run: as §1
binder,measurement,setting,value
Gal 4 (Canis lupus) (protein) MAYVPAPGYQPTYNPTLPYNKPIPGGLSVGMSVYIQGITSEHMRRFCVNFVAGAHPGSDIAFHFNPRFDGWDKVVFNSHLGGKWGSEEKKRSMPFRKGTHFELVFMVLAEHYKVVVNGNPFYEFGHRLPLQLVTHLQVEGDVELQSINFIGGTQPLGQGPGHTQQQPSSLPTMEGPPVFNPPVPFRKRLQGGLTVRRTVIIKGFVPFTSKSFVINFMVESSGDLALHINPRLTEGLVVRNSCLNGSWGSEDRKLSYNPFIPGQFFDLSIRCGMDRFKVYANGQHLFDFSHRLLALQNVDMLEINGDVTLSYIQV,glycan array binding signal (z-score),[1],-0.151
same,glycan array binding signal (z-score),[2],-0.139
same,glycan array binding signal (z-score),[3],-0.13
same,glycan array binding signal (z-score),[4],-0.106
same,glycan array binding signal (z-score),[5],-0.145
same,glycan array binding signal (z-score),[6],-0.151
same,glycan array binding signal (z-score),[7],-0.149
same,glycan array binding signal (z-score),[8],-0.151
same,glycan array binding signal (z-score),[9],-0.146
same,glycan array binding signal (z-score),[10],-0.136
same,glycan array binding signal (z-score),[11],-0.145
same,glycan array binding signal (z-score),[12],-0.148
same,glycan array binding signal (z-score),[13],-0.145
same,glycan array binding signal (z-score),[14],-0.156
same,glycan array binding signal (z-score),[15],-0.146
same,glycan array binding signal (z-score),[16],-0.145
same,glycan array binding signal (z-score),[17],-0.146
same,glycan array binding signal (z-score),[18],-0.126
same,glycan array binding signal (z-score),[19],-0.147
same,glycan array binding signal (z-score),[20],-0.155
same,glycan array binding signal (z-score),[21],-0.15
same,glycan array binding signal (z-score),[22],-0.155
same,glycan array binding signal (z-score),[23],-0.15
same,glycan array binding signal (z-score),[24],-0.152
same,glycan array binding signal (z-score),[25],-0.125
same,glycan array binding signal (z-score),[26],-0.149
same,glycan array binding signal (z-score),[27],-0.131
same,glycan array binding signal (z-score),[28],-0.116
same,glycan array binding signal (z-score),[29],-0.155
same,glycan array binding signal (z-score),[30],-0.149
same,glycan array binding signal (z-score),[31],-0.153
same,glycan array binding signal (z-score),[32],-0.134
same,glycan array binding signal (z-score),[33],-0.152
same,glycan array binding signal (z-score),[34],-0.135
same,glycan array binding signal (z-score),[35],-0.114
same,glycan array binding signal (z-score),[36],-0.149
same,glycan array binding signal (z-score),[37],-0.147
same,glycan array binding signal (z-score),[38],-0.064
same,glycan array binding signal (z-score),[39],-0.143
same,glycan array binding signal (z-score),[40],-0.136
same,glycan array binding signal (z-score),[41],-0.154
same,glycan array binding signal (z-score),[42],-0.149
same,glycan array binding signal (z-score),[43],-0.143
same,glycan array binding signal (z-score),[44],-0.154
same,glycan array binding signal (z-score),[45],-0.123
